The RNAGym collection of RNA variant scans (doi:10.7554/elife.90254)
The source gives no read counts; variants with many changes may rest on few reads.

B1: LINE1-mini (parent)
chain: GGCAGAGCUCAACACAGCGUGGCAAAGUGGCUGUGGCUAGACUGCC

Variants of: B1
Test: self-cleavage, relative activity (ratio to wild type); higher = more cleavage; in vitro, sequencing; the parent is a self-cleaving ribozyme
With GGCAGCGCCCAACACUGCGUGGCAAAGUGGCAGUGGCUAGACUCCC [A6C U9C A16U U32A G44C] the self-cleavage was 0.04.
Variant GGCAGAGCUCAACACAGCGUGGCAAGGUGGCUGUUUCUAGACUGCC [A26G G35U G36U] has a self-cleavage of 0.13.
In the case of GGCAGAGCUCAACACAGCGUGGCACAGUAGCUGUGGCUAGAAUGCC [A25C G29A C42A], the self-cleavage is reported as 0.08.
Variant UCCAGAGCUCAACACAGCGUGGCAAAGUGGCCGUGGCUAGACUGCC [G1U G2C U32C] has a self-cleavage of 0.03.
Work on GGCAGAACUCAACACGGCUAGGCGAAGUGGCUCUGGCUAGACUGCC [G7A A16G G19U U20A A24G G33C] yielded a self-cleavage of 0.02.
Variant GGCAGAUCUCAACACAGCGUGCCAAAGUGGCUGCGGCUAGACUGCC [G7U G22C U34C] has a self-cleavage of 0.04.
With AGCAGAGCUCAAAACAACGUAGCAAAGUGGCUGUAGCUAGACUGCC [G1A C13A G17A G21A G35A] the self-cleavage was 0.08.
For GGCAGUGCUAAACACAGUGUCGCAAAGUUCCUGUGGCUAGACUGCC [A6U C10A C18U G21C G29U G30C], the self-cleavage was 0.02.
For GAGAGAGCUCAACACAGCGUAGCAAAGUGGCUGUGGCUAGACUGCU [G2A C3G G21A C46U], the self-cleavage was 1.56.
With GGCAGAGCUCGACACAGCGUGGCAAAAUGGCUGUGGCUAGACUACC [A11G G27A G44A] the self-cleavage was 0.03.
Work on GGCAGAGCCGAACACAGCGUGGCAAAGUGGCUGUGGUUAGACUGCA [U9C C10G C37U C46A] yielded a self-cleavage of 0.01.
GGGAGAGCUCAACACAGGGUGGCAAAGUGGCUGUGGCUAGACGGCC [C3G C18G U43G] gave a self-cleavage of 0.11.
Work on GGCAGACCUCAACACAGCGUGGCAAAAUGGCUGUGGCUAGACUGGC [G7C G27A C45G] yielded a self-cleavage of 0.23.
In the case of GGCAGAGCUCAACACCGCGUGGCAAAGUGGCUGUGUCUAGACUGAC [A16C G36U C45A], the self-cleavage is reported as 0.03.
In the case of GGCAGAGCUCAACACAGCGUGGCUAUGUGGCUGUGGCUAGACUGCG [A24U A26U C46G], the self-cleavage is reported as 1.91.
GGUAGAGCUCAACAGAGCGCGGCGAAGUGGUUGUGGGUAGACUGCC [C3U C15G U20C A24G C31U C37G] gave a self-cleavage of 0.09.
GGCAGGGCUCAUCACAGCGUGGCAAGGUGGCUGUGGCUAGACUGCC [A6G A12U A26G] gave a self-cleavage of 0.01.
GGCAGAGCUCAACACCGCGUCGCAAAGGGGCUGUGGCUAGACUGCC [A16C G21C U28G] showed a self-cleavage of 0.3.
Work on GGCAGAGCAAAACACAGCGUGGCAAAGUGGCUGUGGCUCCAGUGCC [U9A C10A A39C G40C C42G] yielded a self-cleavage of 0.01.
GGCAGAUCUCAACACAGCGUGGUAAAGUGGCUGUGGCUAGACCGCC [G7U C23U U43C] gave a self-cleavage of 0.02.
AGCAGAAAUGAACACAGCGUGGCAAAGUGGCUGUGGCUAGACUGCG [G1A G7A C8A C10G C46G] gave a self-cleavage of 0.09.
In the case of GGCAUAGCUCAACACAGCGUGGCAAACUGGCUGUGGCUAGACUGCA [G5U G27C C46A], the self-cleavage is reported as 0.11.
With GGCAGAGCUCAACACAGCCUGGCAAAUUGGCUGUGGCUAUACUGCC [G19C G27U G40U] the self-cleavage was 0.11.
GGCAUAGCUCAAGACGGCGUGGCAAAGUGGCUGUGGCUAUACUGCC [G5U C13G A16G G40U] gave a self-cleavage of 0.01.
Variant GGAAGAGCUCGACACAGCGAAGUACAGUGGCUGUGGCUAGACUGUC [C3A A11G U20A G21A C23U A25C C45U] has a self-cleavage of 0.02.
Work on GGCAGUGGUCAACACAGCGUGGCAUAGUGGCUGUGGCUAGACUGCC [A6U C8G A25U] yielded a self-cleavage of 0.19.
With GGCAGAGCUCAACACAGCUUGGCAAAGUCACUGUCGCUAGACUGCC [G19U G29C G30A G35C] the self-cleavage was 0.04.
With GGCAGAGCUGAACACAGCGUGGCAAAGUGGCUGUGUCUUGACUGCC [C10G G36U A39U] the self-cleavage was 0.
In the case of GGCAGAGCUCAACGCAGCGUGGCAAAGUGGCUGUUGCUAGAAUGCC [A14G G35U C42A], the self-cleavage is reported as 0.
Variant GGCAGAGGUCAACACAGCGUAGCAAUGUUGCUGUGGCUAGACUGCC [C8G G21A A26U G29U] has a self-cleavage of 0.15.
In the case of GGCAGAGCUCAACGCAGCGUGGCAAACUGGCAGUCGCUAGACUGCC [A14G G27C U32A G35C], the self-cleavage is reported as 0.03.
GGCAGUGCUAAACACAGCGUGGCCAACUGGCUGUGGCUAGACUGCC [A6U C10A A24C G27C] showed a self-cleavage of 0.02.
GUCAGAGCUCAACUCACCGUGGCAAAGUGGCUGUGGCUAGACUGCC [G2U A14U G17C] gave a self-cleavage of 0.04.
Work on GGCAGUGCUCAACACAGCGUGGCAAAGUGGCAGUGGCUUGACUGCC [A6U U32A A39U] yielded a self-cleavage of 0.2.
GACAGAGCUCAUCAGAGCGUGGCAAAGUGGUUGUGGCUAGACUGCC [G2A A12U C15G C31U] showed a self-cleavage of 0.07.
Variant GGCAGAACUCAACACAGCGUUGCAAAGUGGCUGUGGCUAGCGUGCC [G7A G21U A41C C42G] has a self-cleavage of 0.05.
Work on GCCAGAGCUGAACACAGCGUGGCAAAGUGGCUGGGGCUAGACUGCC [G2C C10G U34G] yielded a self-cleavage of 0.
Variant AGCAGUGCUCAACACAGCGUGGCAAGGUGGCUGUGGCUAGACUGCC [G1A A6U A26G] has a self-cleavage of 0.4.
GGCAGAGCUCAACACAGCGUCGCAAAGUGCCUGUGGCUACACUGCC [G21C G30C G40C] showed a self-cleavage of 0.1.
For GGAAGAGCUCAACACAGCGUGGCAACGUGGCUGUGGUUAGACUGCC [C3A A26C C37U], the self-cleavage was 0.34.
GGCAGAACUCAACACAGGGUGGCAAAGUUGCUGUGGCUAGACUGCC [G7A C18G G29U] showed a self-cleavage of 0.06.
Variant GGCAGAGCUCAACACAGCGUGGCAAAGUCUCUUUGGCUAGACUGUC [G29C G30U G33U C45U] has a self-cleavage of 0.03.
Work on GGCAUAGCUCAACACACCAUGUCAAAGUGGCUGUGGCUAGACUGCC [G5U G17C G19A G22U] yielded a self-cleavage of 0.03.
GGCAGUGCUCAACACAGCGUGGCAAAGUGGCUGUGGCUAGGCUGGC [A6U A41G C45G] showed a self-cleavage of 0.14.
In the case of GGCAGAGCUCUAAACAGCGUGGCAAAGUGGCUGUGGCUAGACUCCC [A11U C13A G44C], the self-cleavage is reported as 0.02.
GGCAGAGCUCAACAUAGCGUGGCAAAGUGGUUUUGGCUAGACUGCC [C15U C31U G33U] gave a self-cleavage of 0.09.
For GGCAGAGCUCAACAGAGUGCGGCAAAGUGGCUGUGGCUUACCUGCC [C15G C18U U20C A39U G40A A41C], the self-cleavage was 0.04.
In the case of GGCAGAGCUCAACACACCGUGGCAACAUGGCUGUGGCUAGACUGCC [G17C A26C G27A], the self-cleavage is reported as 0.37.
With GGCCGAGCUCAACUCCGCGUGGCAAAAUGGCUGUGGCUAGACUGCC [A4C A14U A16C G27A] the self-cleavage was 0.08.
GGCAGAGCUCAACACAGCGUGGGAAAGUGGCUGCGGCUAGAAUGCC [C23G U34C C42A] showed a self-cleavage of 0.03.
For GGCAGAACUCAACACCGCGUGCCAAAGUAGCUGUGGCUAGACUGCC [G7A A16C G22C G29A], the self-cleavage was 0.14.
With GGCCGAGCUCAACACAGCGUGGAAAAGUGCCUGUUGCUUGACUGCC [A4C C23A G30C G35U A39U] the self-cleavage was 0.09.
Variant GGCAGAGAUCAAAACAGCGUGGAAAAGUGGCUGUGGCUAGACUGCC [C8A C13A C23A] has a self-cleavage of 0.44.
In the case of GGCAGAGCUCAACACAGCAUGGCAAAGUGGCUAUGCCUAGACUGCC [G19A G33A G36C], the self-cleavage is reported as 0.02.
Work on AGCACAGCUCAACACAGCGUGGAAGAGUGGCUGUGGCUAGCCUGCC [G1A G5C C23A A25G A41C] yielded a self-cleavage of 0.02.
In the case of GGCAGAGCUCAACACAGCGUGGCAAUGCGGCUGUGGCAAGAUUGCC [A26U U28C U38A C42U], the self-cleavage is reported as 0.05.
